# Data taken from the supplement of paper PMC3334620.
# Whole data set: some 33,000 sequences, median “E-score (-0.5 to 0.5)” near -0.011, cut for the highest 2% near 0.28. This is one part of the list.
# Target: T1, Gcr1 (UniProt P07261)
# T1 sequence: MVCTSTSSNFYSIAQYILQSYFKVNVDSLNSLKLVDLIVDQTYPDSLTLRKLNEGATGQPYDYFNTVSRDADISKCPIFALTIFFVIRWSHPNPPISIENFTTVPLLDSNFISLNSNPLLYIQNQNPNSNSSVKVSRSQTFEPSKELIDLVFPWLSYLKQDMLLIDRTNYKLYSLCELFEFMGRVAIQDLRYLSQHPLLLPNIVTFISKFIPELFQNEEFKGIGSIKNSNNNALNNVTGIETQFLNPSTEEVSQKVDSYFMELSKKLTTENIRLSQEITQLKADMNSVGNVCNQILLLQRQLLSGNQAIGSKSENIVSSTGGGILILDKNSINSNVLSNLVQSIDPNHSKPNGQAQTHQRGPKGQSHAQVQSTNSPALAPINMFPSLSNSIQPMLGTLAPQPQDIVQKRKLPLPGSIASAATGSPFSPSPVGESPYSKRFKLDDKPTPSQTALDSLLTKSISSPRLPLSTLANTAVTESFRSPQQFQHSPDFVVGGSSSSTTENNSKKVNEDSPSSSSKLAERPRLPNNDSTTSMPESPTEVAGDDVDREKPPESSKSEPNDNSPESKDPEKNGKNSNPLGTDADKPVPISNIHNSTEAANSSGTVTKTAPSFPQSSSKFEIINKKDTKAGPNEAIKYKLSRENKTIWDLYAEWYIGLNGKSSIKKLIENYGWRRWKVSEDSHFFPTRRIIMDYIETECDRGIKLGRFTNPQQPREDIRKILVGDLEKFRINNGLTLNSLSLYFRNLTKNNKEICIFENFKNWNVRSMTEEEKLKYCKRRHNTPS
# Test: PBM E-score (8-mer binding enrichment) (E-score (-0.5 to 0.5)); higher = stronger / more preferred TF binding; most listed sequences are background and not binding sites
# Conditions: protein concentration: 100 nM; construct: GST-full length
# Summary of the method: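 Masliner-normalised scans of fluorescent anti-GST signal were the basis for scoring. That signal came from GST-tagged yeast transcription factors applied at about 100-200 nM to double-stranded universal all-10-mer Agilent arrays on fresh or once-stripped slides. Each ungapped eight-base word, pooled with its reverse complement, received an E-score from the Universal PBM Analysis Suite.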
row,Sequence,PBM E-score
1,AGGCTTCA,-0.0957
2,ACTCTGGA,0.247
3,CTGAATTC,0.153
4,CCTAGAAG,-0.0773
5,ATAGGGAC,0.00435
6,GCCTCGAA,0.00437
7,TAGGCCTA,-0.0186
8,AAAGCCTG,-0.242
9,GCGTTGCA,-0.192
10,GATCAACC,-0.11
11,GTTCTTTA,-0.033
12,TAAGAACA,0.0714
13,ACACAGTG,-0.0742
14,GGCAAGAA,-0.14
15,GGGGCACA,-0.0447
16,GAGCAGGA,-0.147
17,GATACGCA,0.247
18,ACCCTGAA,0.192
19,AGCAACGA,-0.145
20,ATTCATGC,0.0643
21,GTTCGCTA,0.00019
22,TCTAATAA,0.0933
23,ACGTATGC,-0.147
24,AGCCACCA,0.143
25,ATATATAG,0.111

row,Sequence,PBM E-score
1,AAGGGTGG,0.00047
2,ATTGAGGA,0.066
3,AAGCATGA,-0.0745
4,CTTACCGA,-0.0397
5,CCAGGGGA,0.173
6,TCGCGACA,-0.316
7,TCGTTTAA,-0.0223
8,AGAATTTA,-0.062
9,CTGGGATA,0.0881
10,AATGATGA,-0.029
11,TCGCTCAA,0.0296
12,GGCGATAC,0.00202
13,TCGCAAAA,0.134
14,ATGGTAAT,-0.0376
15,AGATCGTA,-0.0375
16,AGCCACGG,0.0122
17,AACCATGG,-0.0354
18,ATGTACAT,-0.23
19,TTGGACAA,0.0231
20,CGTACCAG,0.125
21,AGCCGTCA,0.0949
22,ACTGAAGG,-0.152
23,AAACCTGA,0.112
24,GCGCTTGA,-0.15
25,CTAGGTGA,-0.196

row,Sequence,PBM E-score
1,CAGTGCAG,0.167
2,CGTAGCCA,0.106
3,ACGCACGC,0.031
4,GAATCGTC,0.089
5,CGGTTGGC,0.0698
6,CTTGGTAA,-0.133
7,GGCAGAAC,-0.0477
8,AGTCTAGC,0.0246
9,GACATCCC,0.0126
10,AATATAAA,0.0905
11,ATATTACA,0.191
12,CCAGAGGG,-0.166
13,GATCCTAA,0.0225
14,ATCTTTGG,0.206
15,ATTCGAGG,-0.0418
16,CTCAACAA,0.0958
17,CGCGAAGA,0.161
18,ACTTTTAA,0.0489
19,CCACGAGC,-0.177
20,AGTTTCCC,0.058
21,GATCGGGC,-0.126
22,CCTGTAAA,0.102
23,CCCTGAAA,-0.00775
24,AAAGCCAA,0.0021
25,AGATATGG,0.0487

row,Sequence,PBM E-score
1,ACTCTCGC,-0.149
2,CCGACTGC,-0.012
3,ATCTGCAA,-0.158
4,ACTCAGCT,0.0545
5,AGGAACGA,-0.108
6,ACCGCGCT,-0.117
7,ACTGCGGA,-0.12
8,GGTCCAAA,0.0677
9,ATTTTAGA,-0.0231
10,AGACCCAC,-0.0401
11,AGCACGCC,-0.0243
12,AGGAGGTA,-0.126
13,GCAGACAA,-0.0872
14,CAGACTTC,0.0524
15,CCGCTTCA,-0.0817
16,AGAGAGAT,-0.145
17,GGCCCGAA,0.00433
18,ATGGGTTA,0.117
19,GTACTACA,0.00701
20,ACTTTTTG,0.107
21,ACCAGTCC,-0.0636
22,TAGAATGA,-0.0985
23,GGGCGACA,-0.0268
24,AATCATCG,-0.0542
25,GCCGCGAC,-0.0367

row,Sequence,PBM E-score
1,CATGTTAA,-0.0217
2,ATTAGGCC,-0.116
3,ATCCCGAG,-0.102
4,GAGGAATA,-0.146
5,GCCCCGGC,-0.0485
6,CGGTCCAC,-0.225
7,AAGAGCCG,0.0279
8,GGGCACGA,0.0341
9,CACTTGAC,-0.222
10,GACTTATC,0.106
11,AGCTACTA,0.254
12,CGGTTGAA,-0.0759
13,AGAGACGC,0.242
14,ATCTACTC,-0.0333
15,CTAGAGCA,-0.0684
16,ATTCTCAC,-0.109
17,GTACAGGA,0.229
18,ACTGTAAT,0.0127
19,ACGCCGTG,0.0969
20,AGTGGAGG,0.082
21,ACATGCGG,-0.138
22,ATCGGAGG,-0.0859
23,GCTATGCA,-0.193
24,CACAAGCC,-0.251
25,CGACGATC,-0.0215

row,Sequence,PBM E-score
1,CCCATTTA,0.293
2,AGCCACAT,0.0067
3,CGCGACAA,0.062
4,AACAGTGT,-0.0983
5,CGGCGCAA,-0.202
6,CCACATAA,0.109
7,TAATATTA,0.0519
8,ATCGCAAT,-0.0128
9,CCTCTCGC,-0.0389
10,GATTTGGC,-0.239
11,CTCACTTC,-0.21
12,ATGCCCGA,-0.135
13,AGCATAGA,-0.122
14,ACGTCACT,-0.0962
15,CGTAAACC,-0.125
16,TGAGGTAA,0.102
17,ATGGGGTC,-0.00428
18,GCTTAAGC,-0.235
19,CTCGGATA,-0.037
20,CTTCTTTC,0.0982
21,GCGCGAGA,-0.057
22,CGTCAAGA,0.0464
23,TAGACCTA,-0.0537
24,CGGAAACA,0.124
25,GAAGTCTC,-0.158

row,Sequence,PBM E-score
1,AGGCCGGA,-0.277
2,GATACACC,-0.0161
3,ACGAACGT,-0.0353
4,CATAGACG,0.0886
5,ATGATCAT,0.125
6,CAATAATC,-0.0899
7,AAAGGAGG,0.107
8,CGAGGGCC,-0.159
9,AGGTATAG,-0.00638
10,ATCCGAGA,0.135
11,CTACCTGC,-0.00056
12,CACGACCA,-0.235
13,CGCCCAGC,-0.0955
14,GAGTACCC,-0.0644
15,AGGCCGTC,-0.167
16,CACAGCCA,-0.286
17,AGCTGGGA,-0.0169
18,AGCCATCC,-0.0382
19,CTGAACAC,0.0232
20,GCGTAGGA,-0.0379
21,AGTTGCTC,-0.0698
22,GCGTCAAA,0.079
